The values that follow come from patent US12467928B2, “N-terminal modifier agents and binders for treating and analyzing peptides” (Encodia, Inc., priority 2023, dated 2025).

In assay [1] the target is biotinylated peptides M64-P1-P2-ΔK-(PEG9)(PEG9)-K(Biotin). Nature of the assay: bio-layer interferometry (BLI) of engineered binders. It counts as binding. Particulars: P1 = D; M64 peptide; 22° C. On the procedure:
Bio-layer interferometry (BLI) is an optical analytical and label-free method to directly measure kinetics between two biomolecules. In this technology, one biomolecule is immobilized on a surface in the form of a small tip, this tip is then dipped in a microplate containing the second biomolecule of interest. White light is directed down the tip to the tip surface where the binding is measured as a shift in wavelength that is caused as a result of the interference between incident and reflected light. More specifically, there are two surfaces at the tip, a reference layer and the experiment layer, the latter is where the biomolecules immobilize and bind. As the distance between these two layers increases due to biomolecules binding and immobilizing, the shift between incident and reflected wavelengths increases as caused by the light waves interfering at the two layers. Therefore, the size and the number of biomolecules that bind onto the surface is proportional to the shift measured. This shift is plotted against time to give a sensogram from which kon, koff and ultimately KD can be calculated.
All binding experiments were carried out on an 8-channel Gator Prime (Gator Bio) instrument. To measure the affinity of each binder-peptide pair, biotinylated peptides were immobilized on Streptavidin coated biosensor tips (Gator Bio), which were dipped in six binder concentrations and two controls. All binding assays were performed at 22° C. in 96 well polypropylene plates (Gator Bio) and carried out in triplicates with a well volume of 200 uL. Streptavidin coated biosensors were hydrated in the baseline buffer for 10 mins before each assay. […]
Analysis of binding curves. […] Next, the qualifying curves were filled globally and the kinetic parameters kobs, kon, koff and KD were calculated along with their errors. The errors were inspected to be less than […] of its calculated value. Finally, the theoretical shift at equilibrium from the qualifying curves were filled on a steady state plot, and the KD and Rmax (theoretical maximum binding capacity in nm) were calculated from that curve. […]

For the next assay, the system named is M64-DAEIR. Nature of the assay: colorimetric IC50 assay of hCA proteins and engineered hCAII binders, M64-DAEIR. It counts as biochemical. The conditions noted are these: 300 nM protein, 1 mM pNPA, 25 C, 30 minutes; taken as relative Kd. The protocol:
(§1) Kd values for the selected engineered hCAII binders were obtained using the colorimetric assay similar to described in Example 2.
(§2) In the colorimetric assay, 300 nM of wild-type carbonic anhydrase or engineered hCAII binders were aliquoted into a 96-well, clear, flat-bottom plate in 45 μL of 50 mM MOPS (pH7.5), 33 mM Na2SO4, 1 mM EDTA and 0.1% Tween 20. To each column of the plate, a 1/10 dilution series from 1 mM to 0.1 nM of each NTM-derivatized peptide was added and incubated at 25 C for 30 minutes to reach binding equilibrium. To this, 1 mM p-nitrophenylacetate (pNPA) was added to each well and screened on a plate reader at 405 nm. The initial rate of hydrolysis was observed over the first 60 seconds. […] The IC50 value measured in this experiment (see Table 12) provided relative binding affinities of the binders (Kd values).

In the next assay the test system is M64-EAEIR. Nature of the assay: colorimetric IC50 assay of hCA proteins and engineered hCAII binders, M64-EAEIR. It is filed as biochemical. The conditions noted are these: 300 nM protein, 1 mM pNPA, 25 C, 30 minutes; taken as relative Kd. The protocol:
as §1, §2

The next assay concerns M64-AAEIR. The assay is described as follows: colorimetric IC50 assay of hCA proteins and engineered hCAII binders, M64-AAEIR. It counts as biochemical. The conditions noted are these: read-out: IC50 values (μM), M64-AAEIR; 300 nM protein, 1 mM pNPA, 25 C, 30 minutes; taken as relative Kd. On the procedure: as §1, §2
The subject of the next assay is M64-FAEIR. The assay is described as follows: colorimetric IC50 assay of hCA proteins and engineered hCAII binders, M64-FAEIR. It is filed as biochemical. Particulars: 300 nM protein, 1 mM pNPA, 25 C, 30 minutes; taken as relative Kd. The protocol: as §1, §2
Another assay relates to M64-LAEIR. Nature of the assay: colorimetric IC50 assay of hCA proteins and engineered hCAII binders, M64-LAEIR. It is filed as biochemical. Particulars: 300 nM protein, 1 mM pNPA, 25 C, 30 minutes; taken as relative Kd. On the procedure:
as §1, §2

B1: 82 (protein)
chain: ASPDWGYDDKNGPEQWSKLYPIANGNNQSPVDIKTSETKHDTSLKPISVSYNPATAKEIINVGHSFRVNFEDNDNRSVLKGGPFSDSYRLYQFHFHWGSTNEHGSEHTVDGVKYSAELHVVHWNSAKYSSLAEALSKADGIAVIGVLMKVGEANPKLQKVLDALQAIKTKGKRAPFTNFDPSTLLPSSLDFWTYPGSWTAPPLYEIVTWIILKESISVSSEQLAQFRSLLSNVEGDNAVPMQHNNRPTQPLKGRTVRASF
modifications: Synthetic binder, S254_0083
As to B1, in assay [1], the dissociation constant Kd was determined as 28.7 nM, the “koff” value amounted to 0.000119 s⁻¹ and the “kon” value turned out to be 4170 M⁻¹ s⁻¹.

B2: 58 (protein)
chain: DWGYDDKNGPEQWSKLYPIANGNNQSPVDIKTSETKHDTSLKPISVSYNPATAKEIINVGHSFHVNFEDNDNRSVLKGGPFSDSYRLFQFHFHWGSTNEHGSEHTVDGVKYSAELHVAHWNSAKYSSLAEAASKADGLAVIGVLMKVGEANPKLQKVLDALQAIKTKGKRAPFTNFDPSTLLPSSLDFWTYPGSLTHPPLYESVTWIICKESISVSSEQLAQFRSLLSNVEGDNAVPMQHNNRPTQPLKGRTVRASF
modifications: Carbonic anhydrase I, M=M64
As for B2, the half-maximal inhibitory concentration (IC50) with M64-DAEIR was found to be 0.136 ± 0.038 µM; in the assay on M64-EAEIR, 1.09 µM; in the assay on M64-AAEIR, 0.109 µM; in the assay with M64-FAEIR, 0.012 µM; in the assay on M64-LAEIR, 0.016 µM.
